# Results published in the supplement of paper PMC10441789.
# The other results are listed elsewhere or left out. Antibody binding of pooled human sera (four to six donors per pool; dilution not stated) to peptides of the Trypanosoma cruzi antigen TSSA on microarrays. Quantile-normalised fluorescence in arbitrary units, mean of duplicate arrays; higher = more binding. No active / inactive call. The uninfected pools are read here as the healthy donors of the same country. The strongest signals lie near the top of the scale (about 60,000).
# Tests used:
# Assay in all cases: antibody binding signal (normalised fluorescence) (arbitrary fluorescence units); higher = stronger serum antibody binding to peptide
# [1] = tested on: pooled sera of chronic Chagas disease patients, Bolivia
# Protocol: (§1)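 Microarray of 15-residue peptides over residues 30-55 of Trypanosoma cruzi TSSAII, each with 1 to 10 substitutions at naturally variable positions, probed with one serum pool per country.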
# [2] = tested on: pooled sera of chronic Chagas disease patients, Brazil
# Protocol: as §1
# [3] = tested on: pooled sera of chronic Chagas disease patients, Colombia
# Protocol: as §1
# [4] = tested on: pooled sera of chronic Chagas disease patients, Mexico
# Protocol: as §1
# [5] = tested on: pooled sera of chronic Chagas disease patients, USA
# Protocol: as §1
# [6] = tested on: pooled sera of uninfected people, Argentina
# Protocol: as §1
# [7] = tested on: pooled sera of uninfected people, Bolivia
# Protocol: as §1
# [8] = tested on: pooled sera of uninfected people, Brazil
# Protocol: as §1
# [9] = tested on: pooled sera of uninfected people, Colombia
# Protocol: as §1
# [10] = tested on: pooled sera of uninfected people, Mexico
# Protocol: as §1
# [11] = tested on: pooled sera of uninfected people, USA
# Protocol: as §1
Sequence,antibody binding signal [1],antibody binding signal [2],antibody binding signal [3],antibody binding signal [4],antibody binding signal [5],antibody binding signal [6],antibody binding signal [7],antibody binding signal [8],antibody binding signal [9],antibody binding signal [10],antibody binding signal [11]
GTDNKTAAGGTPSQS,294,26000,4830,376,1550,360,710,3090,171,2280,191
KDNKPATGEAPSPPG,49000,49300,315,190,44700,1040,777,394,280,405,146
KEKKPATGETPSPSG,4290,17800,146,138,17600,140,148,115,119,584,1370
SGKEKKPATGEAPSP,35000,44900,2310,5090,36200,907,605,165,225,168,374
KDKKTAAGETPSPSG,251,161,221,198,927,107,90.2,101,204,82,405
SGTENKPATGETPSP,35400,40000,320,497,32800,882,1160,314,167,1900,491
ENKTATGEAPSQSGA,28900,23500,180,229,21300,137,103,199,123,134,114
GTDKKPATGGAPSQS,961,3370,5960,1920,1700,291,942,137,150,271,228
DNKPAAGGTPSPSGA,722,626,1710,253,240,238,560,1320,668,427,145
GTENKAATGEAPSPP,40700,38200,2050,2810,28700,156,306,131,152,102,93.5
GTDKKPATGGAPSPP,785,3030,6920,2010,1960,412,1030,141,224,456,200
KPAAGETPSPPGASS,176,8110,197,254,811,163,277,195,152,151,355
KEKKTATGGAPSQSG,269,448,636,822,489,224,124,102,121,106,108
TPPSGTDNKTAAGGT,39400,48600,1280,18300,7910,679,681,3220,301,244,234
EKKTATGGTPSPPGA,1080,484,3830,690,1450,305,829,379,672,210,662
TENKPATGGAPSQPG,15000,27500,361,1070,3850,363,1190,373,161,233,248
GTDNKTAAGETPSQS,380,32200,263,282,255,146,636,1400,155,156,116
TPPSGTENKAAAGGT,48300,52400,588,6770,20000,2160,608,2030,891,270,557

Sequence,antibody binding signal [1],antibody binding signal [2],antibody binding signal [3],antibody binding signal [4],antibody binding signal [5],antibody binding signal [6],antibody binding signal [7],antibody binding signal [8],antibody binding signal [9],antibody binding signal [10],antibody binding signal [11]
TPPSGTEKKTAAGGA,3970,24100,5050,11100,1980,1260,228,316,121,182,248
KKAATGEAPSQPGAS,6380,36600,170,145,19200,365,182,95,238,84.4,279
TEKKTAAGGAPSPPG,442,295,10800,1150,1890,212,174,241,561,348,243
NKTATGGAPSPPGAS,385,2110,838,404,1110,825,1310,293,615,231,1600
KENKPATGETPSQSG,20400,39300,290,831,28300,364,624,348,187,2040,152
PPSGKEKKPAAGGAP,798,1620,2800,7080,2450,508,433,142,230,124,242
KPATGGTPSPSGASS,249,398,263,3040,249,207,579,199,308,190,294
GKENKAATGGAPSQS,450,13700,8580,8870,18000,341,117,102,124,94.2,197
TDNKPAAGETPSQPG,4060,48600,380,183,6050,92.6,892,244,319,282,114
GTEKKTAAGEAPSPS,273,433,878,838,7160,220,658,168,1080,144,116
GTENKAAAGEAPSQS,16900,24300,1610,2290,12900,89.5,373,109,120,81.5,90.5
ENKTATGGAPSQPGA,3050,4980,555,459,1150,384,204,417,242,539,263
PSGKDKKAAAGETPS,605,2270,4600,4510,4640,157,312,85.9,219,97.2,73.5
EKKPAAGGAPSPSGA,215,392,5880,467,1010,342,844,428,110,125,754
TDNKAATGETPSPPG,5240,21100,137,148,12400,108,357,237,143,169,1970
TSSTPPSGKENKTAT,5670,10600,1420,4910,2880,2050,1230,131,581,334,324
GKDKKAAAGGTPSQP,302,257,1870,724,1390,231,84.8,435,108,175,102
GTDNKAAAGETPSQS,359,34300,208,168,242,81.7,700,1230,128,151,74.9
